# Results published in the supplement of paper PMC10037445.
# Whole data set: some 2,900 compounds, median “NF-kB SEAP reporter activity, fold change vs agonist alone” near 0.99, cut for the highest 2% near 2.6. Some of the results follow.
# What was measured:
# RAW-Dual [1] = assay: NF-kB SEAP reporter activity, fold change vs agonist alone; cytotoxicity flag (confluency mask): not cytotoxic; higher = enhanced NF-kB activity
# Procedure, shortened: (§1)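 RAW-Dual macrophages (50,000 cells/well in DMEM, 384-well plates) received 50 nL of library stock by pin tool, then a PRR agonist 1 h later, and were kept at 37 °C, 5% CO2. After 20 hours, supernatant was read for IRF by QuantiLuc luminescence and for NF-κB by QuantiBlue absorbance at 620 nm. Reporter activity is fold change over agonist-alone wells. Cytotoxic wells had IncuCyte confluency below 70% of agonist controls in both mask sets.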
# RAW-Dual [2] = assay: NF-kB SEAP reporter activity, fold change vs agonist alone; higher = enhanced NF-kB activity
# Procedure, shortened: as §1
# RAW-Dual [3] = assay: NF-kB SEAP reporter activity, fold change vs agonist alone; cytotoxicity flag (confluency mask): cytotoxic (confluency <70% of control); higher = enhanced NF-kB activity
# Procedure, shortened: as §1
# [4] = agonist: ODN 1826 (TLR9) 0.5 ug/mL
# [5] = agonist: Pam2CSK4 (TLR2/6) 0.1 ug/mL
# [6] = agonist: Pam3CSK4 (TLR2/1) 0.1 ug/mL
# [7] = library stock concentration (final ~1000-fold dilution): 10 mM, cytotoxicity flag (confluency mask): not cytotoxic, agonist: Imiquimod (TLR7) […]
# [8] = library stock concentration (final ~1000-fold dilution): 10 mM, cytotoxicity flag (confluency mask): not cytotoxic, agonist: MPLA (TLR4) […]
# [9] = library stock concentration (final ~1000-fold dilution): 10 mM, cytotoxicity flag (confluency mask): cytotoxic (confluency <70% of control), agonist: Imiquimod (TLR7) […]
# [10] = library stock concentration (final ~1000-fold dilution): 10 mM, cytotoxicity flag (confluency mask): cytotoxic (confluency <70% of control), agonist: MPLA (TLR4) […]
compound,measurement,setting,value
CCCN(CCC)CCc1cccc2c1CC(=O)N2.Cl (library stock concentration (final ~1000-fold dilution): 10 mM),NF-kB SEAP reporter activity,RAW-Dual [1]; agonist: LPS (TLR4) 0.1 ug/mL,1.01
same,NF-kB SEAP reporter activity,RAW-Dual [1]; [4],1.04
same,NF-kB SEAP reporter activity,RAW-Dual [1]; [5],1.06
same,NF-kB SEAP reporter activity,RAW-Dual [1]; [6],1.16
CCCN(CCC)CCc1cccc2c1CC(=O)N2.Cl,NF-kB SEAP reporter activity,RAW-Dual [2]; [7],1.22
same,NF-kB SEAP reporter activity,RAW-Dual [2]; [8],1.03
O=C(CSc1nc2c(c(=O)n1-c1ccccc1)SCC2)Nc1ccc(-c2ccccc2)cn1 (library stock concentration (final ~1000-fold dilution): 10 mM),NF-kB SEAP reporter activity,RAW-Dual [1]; agonist: LPS (TLR4) 0.1 ug/mL,1.93
same,NF-kB SEAP reporter activity,RAW-Dual [1]; [4],1.03
same,NF-kB SEAP reporter activity,RAW-Dual [1]; [5],0.764
same,NF-kB SEAP reporter activity,RAW-Dual [1]; [6],0.85
O=C(CSc1nc2c(c(=O)n1-c1ccccc1)SCC2)Nc1ccc(-c2ccccc2)cn1,NF-kB SEAP reporter activity,RAW-Dual [2]; [7],0.962
same,NF-kB SEAP reporter activity,RAW-Dual [2]; [8],1.28
CNCCCC1c2ccccc2C=Cc2ccccc21.Cl,NF-kB SEAP reporter activity,RAW-Dual [2]; [9],1.28
same,NF-kB SEAP reporter activity,RAW-Dual [2]; [10],1.62
CNCCCC1c2ccccc2C=Cc2ccccc21.Cl (library stock concentration (final ~1000-fold dilution): 10 mM),NF-kB SEAP reporter activity,RAW-Dual [3]; agonist: LPS (TLR4) 0.1 ug/mL,0.947
same,NF-kB SEAP reporter activity,RAW-Dual [3]; [4],0.644
same,NF-kB SEAP reporter activity,RAW-Dual [3]; [5],0.63
same,NF-kB SEAP reporter activity,RAW-Dual [3]; [6],0.687
CCCc1nn(C)c2c(=O)[nH]c(-c3cc(S(=O)(=O)N4CCN(C)CC4)ccc3OCC)nc12 (library stock concentration (final ~1000-fold dilution): 10 mM water),NF-kB SEAP reporter activity,RAW-Dual [1]; agonist: LPS (TLR4) 0.1 ug/mL,1.15
same,NF-kB SEAP reporter activity,RAW-Dual [1]; [4],1.16
same,NF-kB SEAP reporter activity,RAW-Dual [1]; [5],1.13
same,NF-kB SEAP reporter activity,RAW-Dual [1]; [6],1.05
CCCc1nn(C)c2c(=O)[nH]c(-c3cc(S(=O)(=O)N4CCN(C)CC4)ccc3OCC)nc12,NF-kB SEAP reporter activity,"RAW-Dual [2]; library stock concentration (final ~1000-fold dilution): 10 mM water, cytotoxicity flag (confluency mask): not cytotoxic, agonist: MPLA (TLR4) […]",1
CC(OC1OCCN(Cc2nn(P(=O)(O)O)c(=O)[nH]2)C1c1ccc(F)cc1)c1cc(C(F)(F)F)cc(C(F)(F)F)c1.CNCC(O)C(O)C(O)C(O)CO.CNCC(O)C(O)C(O)C(O)CO (stereo not drawn) (library stock concentration (final ~1000-fold dilution): 10 mM),NF-kB SEAP reporter activity,RAW-Dual [1]; agonist: LPS (TLR4) 0.1 ug/mL,0.278
same,NF-kB SEAP reporter activity,RAW-Dual [1]; [4],0.301
same,NF-kB SEAP reporter activity,RAW-Dual [1]; [5],0.275
same,NF-kB SEAP reporter activity,RAW-Dual [1]; [6],0.189
CC(OC1OCCN(Cc2nn(P(=O)(O)O)c(=O)[nH]2)C1c1ccc(F)cc1)c1cc(C(F)(F)F)cc(C(F)(F)F)c1.CNCC(O)C(O)C(O)C(O)CO.CNCC(O)C(O)C(O)C(O)CO (stereo not drawn),NF-kB SEAP reporter activity,RAW-Dual [2]; [7],0.547
same,NF-kB SEAP reporter activity,RAW-Dual [2]; [8],0.398
O=C(c1ccc(Cl)cc1)N(Cc1ccccc1)C1CCCCC1,NF-kB SEAP reporter activity,RAW-Dual [2]; [7],0.752
same,NF-kB SEAP reporter activity,RAW-Dual [2]; [8],1.12
O=C(c1ccc(Cl)cc1)N(Cc1ccccc1)C1CCCCC1 (library stock concentration (final ~1000-fold dilution): 10 mM),NF-kB SEAP reporter activity,RAW-Dual [1]; agonist: LPS (TLR4) 0.1 ug/mL,1.17
same,NF-kB SEAP reporter activity,RAW-Dual [1]; [4],0.509
same,NF-kB SEAP reporter activity,RAW-Dual [1]; [5],0.806
same,NF-kB SEAP reporter activity,RAW-Dual [1]; [6],0.849
O=C(Nc1ccccc1)N1CCN(c2nc(-c3ccccc3)ns2)CC1 (library stock concentration (final ~1000-fold dilution): 10 mM),NF-kB SEAP reporter activity,RAW-Dual [1]; agonist: LPS (TLR4) 0.1 ug/mL,2.07
same,NF-kB SEAP reporter activity,RAW-Dual [1]; [4],0.961
same,NF-kB SEAP reporter activity,RAW-Dual [1]; [5],1.11
same,NF-kB SEAP reporter activity,RAW-Dual [1]; [6],1.13
O=C(Nc1ccccc1)N1CCN(c2nc(-c3ccccc3)ns2)CC1,NF-kB SEAP reporter activity,RAW-Dual [2]; [7],1.27
same,NF-kB SEAP reporter activity,RAW-Dual [2]; [8],1.25
Clc1cccc(CN=C2Nc3ccccc3NC23CCNCC3)c1 (library stock concentration (final ~1000-fold dilution): 10 mM),NF-kB SEAP reporter activity,RAW-Dual [1]; agonist: LPS (TLR4) 0.1 ug/mL,0.98
same,NF-kB SEAP reporter activity,RAW-Dual [1]; [4],0.169
same,NF-kB SEAP reporter activity,RAW-Dual [1]; [5],0.518
same,NF-kB SEAP reporter activity,RAW-Dual [1]; [6],0.355
Clc1cccc(CN=C2Nc3ccccc3NC23CCNCC3)c1,NF-kB SEAP reporter activity,RAW-Dual [2]; [7],1.04
same,NF-kB SEAP reporter activity,RAW-Dual [2]; [8],1.21
C/C(=C\C(=O)OCCCCCCCCC(=O)O)CC1OCC(CC2OC2C(C)C(C)O)C(O)C1O (stereo not drawn) (library stock concentration (final ~1000-fold dilution): 10 mM),NF-kB SEAP reporter activity,RAW-Dual [1]; agonist: LPS (TLR4) 0.1 ug/mL,1.46
same,NF-kB SEAP reporter activity,RAW-Dual [1]; [4],1.05
same,NF-kB SEAP reporter activity,RAW-Dual [1]; [5],1.02
same,NF-kB SEAP reporter activity,RAW-Dual [1]; [6],1.16
C/C(=C\C(=O)OCCCCCCCCC(=O)O)CC1OCC(CC2OC2C(C)C(C)O)C(O)C1O (stereo not drawn),NF-kB SEAP reporter activity,RAW-Dual [2]; [7],1.06
same,NF-kB SEAP reporter activity,RAW-Dual [2]; [8],1.04
CN(c1ncccc1CNc1nc(Nc2ccc3c(c2)CC(=O)N3)ncc1C(F)(F)F)S(C)(=O)=O,NF-kB SEAP reporter activity,RAW-Dual [2]; [9],0.481
same,NF-kB SEAP reporter activity,RAW-Dual [2]; [10],0.23
CN(c1ncccc1CNc1nc(Nc2ccc3c(c2)CC(=O)N3)ncc1C(F)(F)F)S(C)(=O)=O (library stock concentration (final ~1000-fold dilution): 10 mM),NF-kB SEAP reporter activity,RAW-Dual [3]; agonist: LPS (TLR4) 0.1 ug/mL,0.225
same,NF-kB SEAP reporter activity,RAW-Dual [3]; [4],0.225
same,NF-kB SEAP reporter activity,RAW-Dual [3]; [5],0.104
same,NF-kB SEAP reporter activity,RAW-Dual [3]; [6],0.162
CCCCCCCCOc1ccccc1C(=O)Nc1ccc(C(=O)OCC[N+](C)(CC)CC)cc1 (library stock concentration (final ~1000-fold dilution): 10 mM),NF-kB SEAP reporter activity,RAW-Dual [3]; agonist: LPS (TLR4) 0.1 ug/mL,0.618
same,NF-kB SEAP reporter activity,RAW-Dual [3]; [4],0.645
same,NF-kB SEAP reporter activity,RAW-Dual [3]; [5],0.546
same,NF-kB SEAP reporter activity,RAW-Dual [3]; [6],0.476
CCCCCCCCOc1ccccc1C(=O)Nc1ccc(C(=O)OCC[N+](C)(CC)CC)cc1,NF-kB SEAP reporter activity,RAW-Dual [2]; [9],1.6
same,NF-kB SEAP reporter activity,RAW-Dual [2]; [10],1
CC(C)(C)NC(=O)NC(C(=O)N1CC2C(C1C(=O)NC(CC1CCC1)C(=O)C(N)=O)C2(C)C)C(C)(C)C (stereo not drawn),NF-kB SEAP reporter activity,RAW-Dual [2]; [7],0.815
same,NF-kB SEAP reporter activity,RAW-Dual [2]; [8],0.964
CC(C)(C)NC(=O)NC(C(=O)N1CC2C(C1C(=O)NC(CC1CCC1)C(=O)C(N)=O)C2(C)C)C(C)(C)C (stereo not drawn) (library stock concentration (final ~1000-fold dilution): 10 mM),NF-kB SEAP reporter activity,RAW-Dual [1]; agonist: LPS (TLR4) 0.1 ug/mL,0.977
same,NF-kB SEAP reporter activity,RAW-Dual [1]; [4],0.99
same,NF-kB SEAP reporter activity,RAW-Dual [1]; [5],0.911
same,NF-kB SEAP reporter activity,RAW-Dual [1]; [6],0.841
CC1=NN(c2ccc(C(=O)O)cc2)C(=O)/C1=C\c1ccc(-c2cc(C)c(C)cc2[N+](=O)[O-])o1,NF-kB SEAP reporter activity,RAW-Dual [2]; [7],1.16
same,NF-kB SEAP reporter activity,RAW-Dual [2]; [8],0.978
